Assay results: article PMC12820563, “FoxP3 forms a head-to-head dimer in vivo and stabilizes its multimerization on adjacent microsatellites”
Some of the results follow.

Each sequence was assayed against T1, MBP-FoxP1dN (Mus musculus, UniProt P58462 326-579) (assay: PD-seq (MBP pull-down with sequencing); 20 mM Tris-HCl pH 7.5, 100 mM NaCl, 1.5 mM MgCl2, 0.4 uM protein, 0.1 uM dsDNA library, 30 min, room temperature, amylose pull-down; high values mean tight binding). Conditions: protein: recombinant; tags: His6-MBP; chain copies: 2; dsDNA, one strand shown.
T1 sequence: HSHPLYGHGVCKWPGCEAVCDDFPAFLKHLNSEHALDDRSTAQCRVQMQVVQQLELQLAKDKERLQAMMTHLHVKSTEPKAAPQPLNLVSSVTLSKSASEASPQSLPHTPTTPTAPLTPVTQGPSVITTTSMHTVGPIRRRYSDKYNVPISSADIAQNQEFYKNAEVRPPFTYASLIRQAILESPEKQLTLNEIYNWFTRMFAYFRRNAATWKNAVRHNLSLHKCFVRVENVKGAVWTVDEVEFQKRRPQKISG
Method in brief: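 The N-terminus-lacking fragment of mouse FoxP3 or FoxP1 carried a His6-MBP tag and was expressed in E. coli. At 0.4 µM it was incubated with 0.1 µM Klenow-filled degenerate double-stranded DNA library for 30 min at room temperature in Tris pH 7.5 buffer with NaCl and MgCl2, and complexes were caught on amylose resin, washed three times, released with proteinase K, PCR-barcoded and Illumina-sequenced. Binding is reads-per-million enrichment of pull-down over input with replicates pooled.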

Question: Which binding signal does the source give for “GATGATTGTTCTCCCAGCTGATGAATTCTAGGGCTCGAGTAAACAAATTTTCCTAATCTTTCTGTTCAAGCGCCATCTAC” here?
Answer: 0.759 RPM ratio (pull-down/input)

Question: For “GATGATTGTTCTCCCAGCTGATGAATTGGCGGTCTCGAGTAAACAAATTTTCCTAATCTTTCTGTTCAAGCGCCATCTAC”, which binding signal is on record?
Answer: 0.801 RPM ratio (pull-down/input)

Question: “GATGATTGTTCTCCCAGCTGATGAATTCGGCCGCTCGAGTAAACAAATTTTCCTAATCTTTCTGTTCAAGCGCCATCTAC” was tested. Which binding signal did it give?
Answer: 0.734 RPM ratio (pull-down/input)

Question: Which binding signal does the source give for “GATGATTGTTCTCCCAGCTGATGAATTGAATGACTCGAGTAAACAAATTTTCCTAATCTTTCTGTTCAAGCGCCATCTAC” here?
Answer: 0.85 RPM ratio (pull-down/input)

Question: Which binding signal does the source give for “GATGATTGTTCTCCCAGCTGATGAATTACGGCGATCGAGTAAACAAATTTTCCTAATCTTTCTGTTCAAGCGCCATCTAC” here?
Answer: 0.945 RPM ratio (pull-down/input)

Question: Which binding signal does the source give for “GATGATTGTTCTCCCAGCTGATGAATTGCAGCGTTCGAGTAAACAAATTTTCCTAATCTTTCTGTTCAAGCGCCATCTAC” here?
Answer: 1.08 RPM ratio (pull-down/input)

Question: How did the binding signal turn out when “GATGATTGTTCTCCCAGCTGATGAATTGGTAAATTCGAGTAAACAAATTTTCCTAATCTTTCTGTTCAAGCGCCATCTAC” was run?
Answer: 1.21 RPM ratio (pull-down/input)

Question: “GATGATTGTTCTCCCAGCTGATGAATTCGGGTATTCGAGTAAACAAATTTTCCTAATCTTTCTGTTCAAGCGCCATCTAC” was tested. Which binding signal did it give?
Answer: 0.937 RPM ratio (pull-down/input)

Question: “GATGATTGTTCTCCCAGCTGATGAATTTCACTTGTCGAGTAAACAAATTTTCCTAATCTTTCTGTTCAAGCGCCATCTAC” was tested. Which binding signal did it give?
Answer: 0.872 RPM ratio (pull-down/input)

Question: How did the binding signal turn out when “GATGATTGTTCTCCCAGCTGATGAATTTTACCAATCGAGTAAACAAATTTTCCTAATCTTTCTGTTCAAGCGCCATCTAC” was run?
Answer: 1.04 RPM ratio (pull-down/input)

Question: “GATGATTGTTCTCCCAGCTGATGAATTCCGATTCTCGAGTAAACAAATTTTCCTAATCTTTCTGTTCAAGCGCCATCTAC” was tested. Which binding signal did it give?
Answer: 0.803 RPM ratio (pull-down/input)

Question: Which binding signal does the source give for “GATGATTGTTCTCCCAGCTGATGAATTCACTCCATCGAGTAAACAAATTTTCCTAATCTTTCTGTTCAAGCGCCATCTAC” here?
Answer: 0.919 RPM ratio (pull-down/input)

Question: How did the binding signal turn out when “GATGATTGTTCTCCCAGCTGATGAATTGACTCGTTCGAGTAAACAAATTTTCCTAATCTTTCTGTTCAAGCGCCATCTAC” was run?
Answer: 1 RPM ratio (pull-down/input)

Question: With “GATGATTGTTCTCCCAGCTGATGAATTATTAGCCTCGAGTAAACAAATTTTCCTAATCTTTCTGTTCAAGCGCCATCTAC” as the sequence, how does the binding signal read?
Answer: 1.06 RPM ratio (pull-down/input)

Question: With “GATGATTGTTCTCCCAGCTGATGAATTCGAATCGTCGAGTAAACAAATTTTCCTAATCTTTCTGTTCAAGCGCCATCTAC” as the sequence, how does the binding signal read?
Answer: 0.802 RPM ratio (pull-down/input)

Question: “GATGATTGTTCTCCCAGCTGATGAATTGGGTGTATCGAGTAAACAAATTTTCCTAATCTTTCTGTTCAAGCGCCATCTAC” was tested. Which binding signal did it give?
Answer: 1.17 RPM ratio (pull-down/input)

Question: Which binding signal does the source give for “GATGATTGTTCTCCCAGCTGATGAATTGTGGGGATCGAGTAAACAAATTTTCCTAATCTTTCTGTTCAAGCGCCATCTAC” here?
Answer: 0.958 RPM ratio (pull-down/input)

Question: “GATGATTGTTCTCCCAGCTGATGAATTTGTGTGCTCGAGTAAACAAATTTTCCTAATCTTTCTGTTCAAGCGCCATCTAC” was tested. Which binding signal did it give?
Answer: 1.23 RPM ratio (pull-down/input)
